From the supplement of paper PMC11417369
This is one part of the list.

Tested on: PfSIP2 AP2 domain 1 (GST-tagged)
Experiment: gcPBM binding intensity (ln(normalized median fluorescence intensity)); higher = stronger DNA binding
Procedure, shortened: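 After 1 h on an Agilent 4 × 180k array of primer-extended double-stranded 36-bp intergenic genomic probes and negative controls, bound GST-tagged P. falciparum DNA-binding domains were detected with Alexa488 anti-GST antibody and scanned at 488 nm. The domains had been expressed in E. coli, and binding took place in 1× PBS with 1% milk, 0.2 mg/ml BSA, 0.5% salmon testes DNA and 0.03% Triton X-100. Binding intensity is the highest Masliner-normalised natural-log median intensity across replicate spots of either probe orientation.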

Row | Sequence | gcPBM binding intensity (ln)
1 | ACAAAATATACAAAATGTACAAAATTTACAAAATAT [XGTACX_site6466] | 7.02
2 | TACCCATGCATTTTTGCACACACATATATATATAAA [CACACA_site1429] | 8.32
3 | AGACAGCGCACAAACACACAAACACCCACCCACATA [CACACA_site451] | 7.15
4 | TACTTACATATAATAACACACAAGAAAAAAATAAAA [CACACA_site1033] | 7.15
5 | ATTTTTGTACACTTCTTTTTTTTTTTTCTTTTATGT [CACACA_negctrl_site1323] | 7.11
6 | TATTATCTCTTATGAACACACATTTTTATTTTCAAA [CACACA_site3353] | 6.92
7 | ATATCGTATATGAGTGGTACTAATATGTAAAAAAAA [XGTACX_site7830] | 7.01
8 | AAAGTTATAATACGTACACACCTTATCTTTTTGGCT [CACACA_site6267] | 6.99
9 | TTTATGGGTATGTTTACACACATAAAAAAATATATG [CACACA_site5646] | 6.9
10 | ATATATATGAAAATATGTACATATATATATATATAA [XGTACX_site7550] | 7.3
11 | ATATAAGTATTTTGAATGCACTTTCTTTTTTTTTTT | 8.3
12 | ACTGAAAAAAGAAATACACACATTCTGGATCATATA [CACACA_site3860] | 6.79
13 | TTATAAAATAATTAATGTACGTTTATGTGTATCGAA [XGTACX_site6117] | 7.13
14 | AACGATATCTGTACTACACACATTATGTCATCCTAT [CACACA_site5374] | 7.14
15 | AATATTAAAAACAAAACACACAAAAAAAAATAAACT [CACACA_site6470] | 7.09
16 | ATTAACACTGAAAAATGTACATATATAAATATAAGC [XGTACX_site8222] | 7.05
17 | TAAAATAATACAAAATGTACAAAATTTACAAAATGT [XGTACX_site3541] | 6.95
18 | ATGTAAATTAAACATGGTACACATTATACAAAATTA [XGTACX_site5675] | 6.95
19 | AATATAGAACAATGTTGTACATATAATAATCTTATA [XGTACX_site4671] | 6.86

Row | Sequence | gcPBM binding intensity (ln)
20 | TAATAATAAAAATAAACACACATATAGATGTATATA [CACACA_site7360] | 6.75
21 | ATTTTGTTCGAAAGGTGTACATATACAAAAATTATG [XGTACX_site957] | 7.49
22 | ATTGCTTTTCTTTTTGCACACTTATGCATATATATA [CACACA_site2584] | 10.2
23 | AGCACACCCACAAAAACACACACAAAGGTGTTCTTA [CACACA_site8355] | 6.99
24 | TCATTATTATTCCTCACACATATATATATATATATT [CACACA_site4375] | 7.42
25 | CACTTTTCATATATGACACACAAAAAATTAATAAAA [CACACA_site3639] | 7.32
26 | GCATGTATAATGGTAGTGCATATAATAATATAATAA [GTGCAC_site9548] | 9.06
27 | ATATTGTAAGTAAAATGTAATAAATATAATAAAATA [CACACA_negctrl_site697] | 7.03
28 | TTAGTATATACATTTGCACACATTATTTTTTAACAT [CACACA_site2618] | 7.2
29 | AAAAGGAAAATACTAGCACACAATATATAATAAACA [CACACA_site285] | 6.98
30 | TCCTTGCATTTTAAAACACACAAAAATTAATTGTTA [CACACA_site7152] | 7.54
31 | TTTCTAATTATTTCCCTTCAAATATATTAATATCGT [CACACA_negctrl_site429] | 7.02
32 | TAAAAATGTGGACACACACACATATATATATTTAAT [CACACA_site4941] | 7.08
33 | ATATATATTATTATATGTACATATAAATATATTAAT [XGTACX_site5270] | 7.1
34 | TTCATATATTATTATGCATGTTCATAAATTATCTAA [TGCATGCA_site896] | 6.99
35 | TTCATATAATTATATACATGCATAAATTCTAAGTAA [TGCATGCA_site622] | 6.91
36 | ATTTTATAAACAAATGAACACACAAACATATATATA [CACACA_site9036] | 7.15
37 | TACATACATAAACACACACACACATATATATATATA [CACACA_site8953] | 9.26
38 | ATCAAAAGAAAACACACACACATACATATATATATA [CACACA_site3795] | 9.07

Row | Sequence | gcPBM binding intensity (ln)
39 | ATTTGTGTATATTAGAGTACATAAAATTAGAGGAAC [XGTACX_site1654] | 7.61
40 | CATTAATGACATGATTGTACATAAGCTTTTTTACAT [XGTACX_site1888] | 6.88
41 | ACCCATTCAAATTTCGCACACACATACAAAAAAAAA [CACACA_site3094] | 7.9
42 | TATTTAAAAATAAAATGTACATATTATTATGCATTA [XGTACX_site1303] | 7.06
43 | TGATTCTAACTTATGGTGCAACATTATGGACACCGT | 10.7
44 | TTACATATTTATGATTGTACACATTTATAAACAATA [XGTACX_site2190] | 6.99
45 | TTAATATTGTTATAGCGTACAAATAAACATATTAAA [XGTACX_site8153] | 7.05
46 | AATGTTAAGGAGGGGAGTACATAAAATTCTCTCTCC [XGTACX_site1990] | 7
47 | AAAAGCTATAAAAATCGGTAATTTATAACAGGAATT [CACACA_negctrl_site469] | 6.79
48 | ATTATGTACTATTATACACACGTTTAATTGTAAATT [CACACA_site4278] | 7.12
49 | ATAATAATAAAGTGAACACACACATATAATATATAT [CACACA_site9378] | 7.19
50 | ATTATACACGCGCGCACACACAACAAAAAAAAAAAA [CACACA_site7630] | 7.59
51 | TAAATAAACAAATTAACACACAGAATTTTTTTTTTC [CACACA_site1674] | 6.64
52 | ATATTAAGAATGTATACATGCATATATATATAGTAC [TGCATGCA_site219] | 7.25
53 | ATTTTAATAAACACTTACATGTTTTCCAAATTGTAT [CACACA_negctrl_site1807] | 6.93
54 | TTCGTTAAAAATAAATGTACATAAATAAACCTTATT [XGTACX_site621] | 7.33
55 | TATTAATAAATATGTTTACACACGAAAATACATTTT [CACACA_site1012] | 6.82
56 | AAAGATTTAGAAAATGAACACACGAGCACCCACCGA [CACACA_site1017] | 9.57
57 | GAAAGAGAGATATATACACACATATTTATATTTTTA [CACACA_site7057] | 6.76
